Assay results from PMC4336329 (PLoS ONE, 2015).
The campaign covered roughly 310,000 compounds. About 14,000 (4.5%) showed an effect of 50% or more. Effects have a minus sign here. The list shows a part of the results.

These compounds were tested against human ether-à-go-go-related gene (hERG) potassium channel (human, UniProt Q12809) (assay: primary screen, population patch clamp on CHO cells stably expressing hERG).
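Further: peak tail current of the secondary pulse compared with the same well before compound.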

human ether-à-go-go-related gene (hERG) potassium channel, sequence (Q12809 whole entry, looked up): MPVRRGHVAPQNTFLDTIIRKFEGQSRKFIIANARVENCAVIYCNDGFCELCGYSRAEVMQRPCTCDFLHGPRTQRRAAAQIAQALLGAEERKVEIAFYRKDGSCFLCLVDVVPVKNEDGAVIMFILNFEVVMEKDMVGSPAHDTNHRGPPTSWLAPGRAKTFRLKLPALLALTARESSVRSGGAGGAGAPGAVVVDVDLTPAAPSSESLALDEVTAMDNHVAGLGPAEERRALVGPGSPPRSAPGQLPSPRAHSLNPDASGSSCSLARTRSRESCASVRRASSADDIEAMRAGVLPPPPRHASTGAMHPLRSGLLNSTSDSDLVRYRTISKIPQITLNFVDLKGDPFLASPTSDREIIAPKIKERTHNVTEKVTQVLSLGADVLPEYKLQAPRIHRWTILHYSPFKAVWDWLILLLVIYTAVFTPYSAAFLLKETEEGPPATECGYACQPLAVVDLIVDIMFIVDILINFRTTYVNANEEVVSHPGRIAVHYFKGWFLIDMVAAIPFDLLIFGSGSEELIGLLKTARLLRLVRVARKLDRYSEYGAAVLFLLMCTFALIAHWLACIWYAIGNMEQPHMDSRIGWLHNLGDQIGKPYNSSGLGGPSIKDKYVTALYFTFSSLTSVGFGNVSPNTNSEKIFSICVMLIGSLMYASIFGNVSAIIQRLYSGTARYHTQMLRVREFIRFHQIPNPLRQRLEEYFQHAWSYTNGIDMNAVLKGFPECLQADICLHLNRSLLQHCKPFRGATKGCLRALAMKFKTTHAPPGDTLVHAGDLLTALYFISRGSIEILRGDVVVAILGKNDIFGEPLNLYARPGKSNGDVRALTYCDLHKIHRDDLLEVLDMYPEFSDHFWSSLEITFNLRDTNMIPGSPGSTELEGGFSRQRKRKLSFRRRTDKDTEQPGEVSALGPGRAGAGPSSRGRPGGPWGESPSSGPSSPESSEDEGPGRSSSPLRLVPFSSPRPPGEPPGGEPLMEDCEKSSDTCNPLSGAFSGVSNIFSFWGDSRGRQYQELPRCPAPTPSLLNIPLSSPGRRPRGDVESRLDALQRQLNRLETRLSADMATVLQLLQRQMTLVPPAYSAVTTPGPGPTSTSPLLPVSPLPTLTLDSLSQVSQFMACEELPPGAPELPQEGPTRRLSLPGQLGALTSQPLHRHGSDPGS

SMILES	hERG current change (%, negative = inhibition) at 10uM
COc1ccccc1N1C(=O)CC(Sc2ncccc2C(=O)O)C1=O (stereo not drawn)	5.48%
Cc1ccc(NC(=O)c2cc(S(=O)(=O)N3CCCCC3)c[nH]2)cc1C	9.77%
O=C(OCCC1Oc2cccnc2NC1=O)c1ccc([N+](=O)[O-])cc1 (stereo not drawn)	6.29%
CCOc1ccc(CCNC(=O)c2cnccn2)cc1OCC	11.1%
CN(NS(=O)(=O)c1cccs1)c1ncc(C(F)(F)F)cc1Cl	8.25%
NNc1nc2cc3c(cc2s1)OCCO3	14.1%
CN(Cc1ccccc1)S(=O)(=O)c1ccc(Cl)nc1	-10.5%
O=C(CN1C(=O)COc2ccccc21)NCC1CCCO1 (stereo not drawn)	-14.4%
O=C(NCCc1ccc(F)cc1)C(=O)NCC1CCCN1S(=O)(=O)c1cccs1 (stereo not drawn)	-57.6%
CCCCN(C)C(=O)c1cn(-c2cccc(OC)c2)c(=O)c2ccccc12	-20.9%
O=C(NC(=O)c1ccccc1)NC1(C(F)(F)F)OCCO1	2.65%
CCOC(=O)N1CCN(CC(=O)N2c3ccccc3CC2C)CC1.O=C(O)C(=O)O (stereo not drawn)	10.4%
NC(=O)c1ccc(N2CCN(c3ccccc3F)CC2)c([N+](=O)[O-])c1	-25.5%
COC(=O)C1=C(C)Nc2c(c(=O)n(C)c(=O)n2C)C1c1ccc(Cl)cc1 (stereo not drawn)	-4.27%
Cc1ccc(C2NC(c3ccc(C)cc3)C(C)C(=O)C2C)cc1 (stereo not drawn)	-7.77%
Cc1ccc2nc(SCC(=O)Nc3ccc(C)c(Cl)c3)nc(=O)n2c1	-12.8%
COc1cccc2cc(-c3csc(NC(=O)CCC(=O)NCCCN4CCC(C)CC4)n3)c(=O)oc12	-51.9%
O=C(NNC(=O)c1ccc(Br)s1)NC1CCCCC1	28.1%
CC(=O)Nc1c(C)ccc(CNC(=O)COc2cc(C)ccc2C)c1C	-0.074%
CCOC(=O)Cn1nc(C)c2c1CCCC2=O	1.49%
COc1cc(OC)cc(C(=O)NCC(=O)OCc2nc3ccccc3s2)c1	3.5%
CCOc1cc(C2C(C#N)=C(N)Oc3n[nH]c(CC)c32)ccc1OCCN1CCOCC1 (stereo not drawn)	2.02%
CCOC(=O)c1c(C)c[nH]c1C	11.5%

SMILES	hERG current change (%, negative = inhibition) at 10uM
COc1ccc2c(c1)C(=O)N(c1ccc(C)cc1C)C(=O)C2	7.6%
CCOC(=O)C1=C(COC(=O)Cc2ccc(OC)c(OC)c2)NC(=O)NC1C (stereo not drawn)	-2.96%
Brc1ccc(CNc2ccc3ncccc3c2)cc1	14.8%
COc1ccc(OC)c(NC(=O)c2cccc(NC(=O)c3ccccc3C(=O)O)c2)c1	17.5%
CSc1nsc2nc(=O)c(/C=C3\C=Nc4ccccc43)c(N)n12	18.4%
COc1ccc(NC(=O)CN2C(=O)C(C)SC(C)C2=O)c(OC)c1 (stereo not drawn)	18.5%
Cc1ccc(C2NS(=O)(=O)N=C2N)cc1 (stereo not drawn)	-2.13%
CCNc1nc(NC(C)(C)C)nc(N2CCCC2)n1	-5.41%
O=C1C=C(c2ccc(-c3ccccc3)cc2)C[C@@H](c2ccc3c(c2)OCO3)C1	7.88%
O=C1C=C(c2ccccc2)OC(=O)C1C(=O)c1ccccc1 (stereo not drawn)	8.25%
CCCNC(=O)C1CCN(c2cc(-c3ccccc3)nc3ncnn23)CC1	-75.8%
O=C1O[C@@H]([C@H](O)CO)C(O)=C1O	9.09%
O=C(O)C(=O)O.Oc1ccccc1CN1CCN(C(c2ccccc2)c2ccccc2)CC1	17%
CC(NC(=O)CNC(=O)c1ccccc1F)c1ccc(-n2ccnc2)cc1 (stereo not drawn)	-64%
CCC(=O)Nc1nnc(C(C)(C)C)s1	19.6%
O=C(NCC1CCCO1)C1CCCN(c2ncccn2)C1 (stereo not drawn)	13.5%
O=C(c1cc([N+](=O)[O-])cc([N+](=O)[O-])c1)N1CCOCC1	6.47%
CC(C)OC(=O)c1cc2c(=O)[nH]c(C(Cl)(Cl)Cl)nc2o1	26.1%
CCCC(NC(=S)NCC1CCCO1)C12CC3CC(CC(C3)C1)C2 (stereo not drawn)	14.5%
CCOC(=O)c1nc(NNC(=O)c2ccc([N+](=O)[O-])cc2)sc1C	-6.84%
CCc1nnc(NS(=O)(=O)c2ccc(NC(=O)CCC(=O)OC)cc2)s1	1.66%
COc1ccc(CNC(=O)CSc2nc3ccc(C)cc3[nH]2)cc1	-8.01%
C=CCOC(=O)C1=C(C)NC(C)=C(C(=O)OCC=C)C1/C=C/c1ccccc1	4.2%

SMILES	hERG current change (%, negative = inhibition) at 10uM
O=C(CNC(c1ccccc1)c1ccccc1)Nc1ccccc1-c1ccccc1	7.06%
O=C(NCc1ccco1)/C(=C/c1ccco1)NC(=O)c1ccc(Br)o1	-11.6%
Cc1ccc(CNC(=O)NC2CCCCC2)cc1	19.4%
O=C1c2ccccc2NC(c2ccccc2)N1/N=C/c1ccccc1 (stereo not drawn)	14.2%
COc1cc2cc(CN(Cc3cccs3)C(=S)Nc3cccc(C)c3)c(=O)[nH]c2cc1OC	-4.91%
COC(=O)c1[nH]c2ccccc2c1CN1CCOCC1	-0.668%
COc1ccc(C(=O)C[n+]2ccc3ccccc3c2C)cc1.[Br-]	-2.48%
COCCOc1cc(N2C(=O)CSCC2=O)c(Cl)cc1Cl	-9.88%
CC1CCCCN1C(=O)CCC(=O)Nc1nnc(C(F)(F)F)s1 (stereo not drawn)	11.8%
O=C(c1ccc2c(=O)n(Cc3ccc4c(c3)OCO4)c(=S)[nH]c2c1)N1CCCCC1	-4.24%
CCC(c1nnnn1CCOC)N(Cc1ccc(C)cc1)Cc1cc2cc(OC)ccc2[nH]c1=O (stereo not drawn)	8.28%
CCOC(=O)C1=C(C)Nc2ccccc2N=C1NC(=O)Cc1ccc(Cl)c(Cl)c1	9.56%
O=C(Nn1cnnc1)c1cc([N+](=O)[O-])cc([N+](=O)[O-])c1	-1.95%
N/C(=N/OCc1cccc([N+](=O)[O-])c1)c1nonc1N	-24%
CC1CC=C(c2ccccc2)C(=S)N1 (stereo not drawn)	-4.53%
C=CCc1c(C)[nH]c(=S)c(C#N)c1C	18%
CC(=O)N1c2ccc(S(=O)(=O)NCCC(=O)NC3CCCC(C)C3C)cc2CC1C (stereo not drawn)	-3.55%
COc1cc(NC(=O)C/C(C)=N/NC(=O)C(=O)NCCO)c(OC)cc1Cl	1.38%
CCN=C1SC(CC(=O)Nc2sc(C)c(C)c2C(=O)OC)C(=O)N1CC (stereo not drawn)	9.64%
O=C(Nc1ccc(S(=O)(=O)Nc2nccs2)cc1)c1ccc(N2C(=O)c3ccccc3C2=O)cc1	4.11%
Cc1cccc(C)c1NC(=O)CN1C(=O)CCSc2ccc(S(=O)(=O)N3CCCC3)cc21	12%
CC(C(N)=O)N1C(=O)NC2(CCCc3ccccc32)C1=O (stereo not drawn)	22.4%
CC(=O)NC12CC3CC(C1)CC(C(=O)N1CCN(S(=O)(=O)c4ccccc4[N+](=O)[O-])CC1)(C3)C2	-20.8%

SMILES	hERG current change (%, negative = inhibition) at 10uM
CN1CCN(c2cc(N3CCNCC3)ccc2[N+](=O)[O-])CC1	11.3%
O=C(CN1CCN(c2ccccc2O)CC1)Nc1cccnc1Cl	-17.2%
CS(=O)(=O)c1ccc2nc(NC(=O)Nc3ccc(Cl)cc3)sc2c1	5.07%
CCCCc1cc(=O)oc2cc(OCC(=O)N3C[C@H]4C[C@@H](C3)c3cccc(=O)n3C4)c(Cl)cc12	-62.5%
CC(=O)N1CCN(C(=O)COC(=O)COc2c(C)cc(C)cc2C)CC1	5.48%
CCCCCn1c(=O)[nH]c2cc(C(=O)NCc3ccccn3)ccc2c1=O	11.3%
O=C(Nc1cnn(Cc2ccc(F)cc2)c1)c1cc(-c2cccs2)on1	-5.36%
COc1ccc(NC(=O)C(=O)Nc2cccc3cccnc23)cc1OC	8.97%
COc1ccc(Cl)cc1-c1csc(N)n1	-10.4%
CCOC(=O)CSc1nnc(-c2ccccc2)c(-c2ccccc2)n1	18.3%
COc1ccc(NC(=O)CN(C)C(=O)CCc2nc3cc(S(=O)(=O)N4CCOCC4)ccc3n2C)cc1	-9.09%
COc1ccc(C)cc1NC(=O)C12CCC(C)(C(=O)O1)C2(C)C (stereo not drawn)	2.04%
O=C(Nc1cc([N+](=O)[O-])ccc1F)c1ccc2c(c1)OCCO2	21.6%
CN1CCN(c2ccc(S(C)(=O)=O)cc2[N+](=O)[O-])CC1	-2.78%
O=C(CCCN1C(=O)c2cccc3cccc(c23)C1=O)Nc1nccs1	1.74%
N#CC1=C(N)Oc2cc(N)ccc2C1c1ccccc1F (stereo not drawn)	0.196%
Cc1nnsc1C(=O)NC(C)c1ccccc1 (stereo not drawn)	12%
CC(=O)Cc1nsc(NC(=O)c2ccccc2Cl)n1	38.2%
O=C(NC12CC3CC(CC(C3)C1)C2)c1cncc(Br)c1	-14.8%
O=C(O)c1ccc2c(c1)OCCOCCOCCOCCOCCO2	-64%
CCOc1ccc(-n2c(=O)c3sccc3n(CC(=O)NCCc3ccc(OC)c(OC)c3)c2=O)cc1	13.1%
